Assay [1] addresses T1, PBRM1-BD4 WT (fourth bromodomain of polybromo-1, aa 496–637) (human, UniProt Q86U86-5 496-637).
T1 chain: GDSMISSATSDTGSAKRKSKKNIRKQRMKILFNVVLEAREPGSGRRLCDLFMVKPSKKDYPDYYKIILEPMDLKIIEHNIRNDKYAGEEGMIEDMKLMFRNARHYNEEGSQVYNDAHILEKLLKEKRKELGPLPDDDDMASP
In words: AlphaScreen, WT run alongside P556S.

For assay [2], the target named is T1, PBRM1-BD4 WT (fourth bromodomain of …). Put plainly: AlphaScreen, WT run alongside R576L. For orientation: Bead proximity is the source of the signal in Alpha formats.
Assay [3] has the same target. In words: AlphaScreen, WT run alongside M586I.

In publication PMC11002309 (2024) one finds EC50 data, which are given here for 1 molecule.

B1: biotinylated histone H3K14ac(1–20) peptide (peptide)
peptide: not shown
modifications: acetyl-lysine at K14; biotin on the added C-terminal lysine; C-terminal amide (CONH2)
In general, EC50 refers to the concentration needed to bring the measured effect to its halfway point. A lower EC50 goes with higher potency in that assay. Regarding B1, the EC50 in assay [1] stood at 67 nM; in assay [2], 94 nM; in assay [3], 62 nM.
